Test results reported in the supplement of paper PMC3334620.
The full ranking holds about 33,000 sequences; the median of “E-score (-0.5 to 0.5)” is about -0.054, and the highest 2% start at about 0.35. The list shows a part of the results.

Each sequence was assayed against T1, Stb5 (UniProt P38699) (assay: PBM E-score (8-mer binding enrichment) (E-score (-0.5 to 0.5)); higher = stronger / more preferred TF binding; most listed sequences are background and not binding sites). Settings: protein concentration: 200 nM; construct: GST-full length.
T1 sequence: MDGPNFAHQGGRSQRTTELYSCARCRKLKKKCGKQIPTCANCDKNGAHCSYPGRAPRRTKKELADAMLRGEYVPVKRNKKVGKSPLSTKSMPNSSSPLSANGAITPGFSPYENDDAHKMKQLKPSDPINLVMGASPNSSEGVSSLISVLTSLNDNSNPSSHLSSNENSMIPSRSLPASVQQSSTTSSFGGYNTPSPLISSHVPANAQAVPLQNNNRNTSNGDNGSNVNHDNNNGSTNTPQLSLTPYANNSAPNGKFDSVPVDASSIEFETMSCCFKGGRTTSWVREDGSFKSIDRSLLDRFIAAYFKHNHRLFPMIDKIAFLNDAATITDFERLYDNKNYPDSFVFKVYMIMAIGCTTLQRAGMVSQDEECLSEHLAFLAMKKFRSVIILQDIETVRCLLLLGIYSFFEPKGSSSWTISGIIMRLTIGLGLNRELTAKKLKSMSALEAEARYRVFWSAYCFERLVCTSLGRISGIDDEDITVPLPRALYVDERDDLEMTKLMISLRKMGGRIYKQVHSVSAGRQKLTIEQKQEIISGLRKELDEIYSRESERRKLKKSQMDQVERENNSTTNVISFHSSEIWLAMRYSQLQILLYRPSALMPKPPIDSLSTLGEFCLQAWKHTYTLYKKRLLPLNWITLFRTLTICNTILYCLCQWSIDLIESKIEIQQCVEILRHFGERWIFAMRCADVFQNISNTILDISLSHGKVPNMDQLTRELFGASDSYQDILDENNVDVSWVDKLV
Method in brief: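 E-scores (a modified Wilcoxon-Mann-Whitney statistic) were assigned by the Universal PBM Analysis Suite to every ungapped eight-base word pooled with its reverse complement. The input came from universal all-10-mer Agilent arrays made double-stranded by primer extension and probed with GST-tagged yeast transcription factors at about 100-200 nM. Fluorescent anti-GST detected bound protein, and masliner normalised the scans.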

Sequence	PBM E-score
GACTGCAC	-0.173
ACGACTTA	-0.194
GGTCACAC	0.0378
AGTCCAGA	-0.041
AGGAGCTA	-0.0145
ATCCCGTA	0.205
AAGGGATC	-0.0944
CAGCACCG	0.313
ACAAATAC	-0.0655
ATCGGGAC	0.255
CGTCTCCA	0.06
CCCACCCC	0.165
AGCCTCTA	-0.177
CAGAGTGC	-0.193
AATAAACG	0.0953
AGATATTC	-0.281
ACATCTTG	-0.169
AGGAGCAC	-0.252
CATGTGTA	-0.0555
AGGCCAAG	-0.115
AACAGGGA	-0.177
CGAATGCA	-0.296
ACGGCCTC	0.197
ACTTGCTG	-0.274
TCCGCCAA	0.295

Sequence	PBM E-score
CTCATTAC	-0.0772
GTTTACAA	0.0105
GGCATGCA	0.0835
AACCCTAC	-0.32
ATGGACCC	0.137
ATTATACG	0.173
GGCTCGTA	-0.0961
CATACCGA	0.279
CCCCCAGC	-0.256
AAGACTTA	-0.277
AACCGAAA	-0.0451
AGTCTGCC	-0.237
AGACCTGC	-0.354
CGACTGGA	-0.0921
GGTCCCAA	0.129
AAGCAGGA	0.0511
CCATATGG	-0.258
TCTGCCAA	-0.231
GGCCTTAA	0.377
AGACGATA	-0.0951
AATGCGGA	0.2
TACCGGTA	0.36
GGGCTGTA	-0.0498
ATGTGACC	0.211
ATGAGAGA	-0.26

Sequence	PBM E-score
AACCAAGT	0.00232
CTGAGTCA	-0.0224
ACCTATCA	-0.0967
CTATACGA	-0.028
CACGGCGG	0.297
AAGATAAG	-0.159
ACCTAGTA	-0.226
TTCTGCAA	-0.0238
ATATGCTC	0.0682
ATACGCAT	-0.16
CCTGGTCA	-0.214
AAGGCCCA	-0.17
AGATCGTG	-0.171
CACGCATG	-0.221
AATCATCT	-0.0985
ACTAGGGG	-0.175
TGCCTACA	-0.0809
GCGGGGAC	0.322
GTGGTTAA	-0.133
AGGTATAA	0.126
CGTCGTGC	0.0585
AATGTAAA	-0.0417
GTTAGCTA	-0.0196
GCAGACAC	-0.0617
ATCAAATG	0.0982

Sequence	PBM E-score
CCGGAATA	0.101
GTTAAGCA	0.135
AGAATGCA	-0.0784
CGGCATGC	0.273
ATAGGAGA	-0.284
GGCCGTAA	0.286
AGCTAGAT	-0.205
CCCCTTGA	-0.173
TAGGTTCA	-0.0127
TACTTCCA	-0.0505
ATCCACAC	-0.0482
CGTCGGTC	0.325
AAGTGTCG	-0.0149
ACTAATCG	0.0876
GAGCACGA	-0.0895
CGCGCTAG	0.092
GCCATACA	-0.138
GATGATCA	-0.169
CCCGGAGG	0.136
CACTCTAG	-0.114
GATCACAC	-0.0915
CGGTTCCA	0.202
GCTGTCAC	0.0485
AGGGTTTC	0.0222
AGAACGGG	0.242

Sequence	PBM E-score
CTGAAAAA	-0.24
CCTTATTC	-0.0931
ACACCGCC	0.459
ACAACGTA	-0.0956
AGGGTTAC	-0.0791
CGGCCCCG	0.112
AAATCAAT	-0.279
GCAGGCAA	-0.0838
CTATCTAA	-0.0722
CGATGCAC	-0.0315
AACAAGAT	-0.0682
CAACCGCG	0.223
AGTCCAGG	-0.159
AACCATGC	-0.0189
AGTTAAAC	-0.00364
AAAGTCAA	-0.0439
ACGGCCAG	-0.138
GCTCTGAC	-0.244
CCGGAACA	0.18
ACCACATG	-0.237
GGCCCAAC	0.0296
TAAATGAA	-0.0892
ACTTAGGC	0.0774
ACCCCGTC	0.381
CTGCCAAC	-0.2

Sequence	PBM E-score
CACCCTAA	-0.22
GCGCTCAA	-0.0162
CATTCTGA	-0.0401
GGATGGAC	-0.0348
ACAGTTCA	-0.458
CGCCTCCA	-0.0168
ATCACTGC	0.0552
GTCTGTAA	-0.0447
TCACTGGA	-0.0994
GAACGATC	-0.0814
CCTCCCGA	-0.102
CTACCCGC	0.0976
TATCAGGA	-0.133
ACAGGTAC	0.00114
CAAACATC	0.116
AACGCGCC	0.0791
AAATAGTT	0.114
CCCATTGC	0.0345
GCGGACGC	0.175
CTCGACTC	-0.274
ACCTACAA	-0.195
ATGGTAAG	-0.0725
GAAATTCC	0.18
GTGAGTAA	-0.263
GTCCTAAA	0.16

Sequence	PBM E-score
ACCGGGGG	0.286
ACGTCGCC	-0.145
ATTAAATC	0.154
GTATAATA	0.23
ATTGATTA	-0.011
GTGTACAC	0.0145
TACAGGCA	-0.103
AGGGCATA	-0.0797
CGTGTTAC	-0.0374
ACGCCGGG	0.306
AGATCATG	-0.263
ACCCAGCT	-0.0625
AGGTCACC	-0.0781
CAATGTAG	-0.0807
GACGTAGA	-0.0614
AGCCAGAG	-0.22
AATAATAC	0.0883
CCTGTCTC	-0.275
AAGTGCAC	-0.186
GCGACTTA	0.0301
ACACGCTA	-0.00936
CGATAAAG	0.12
